Experimental data taken from paper PMC4336329 (PLoS ONE, 2015).
Hit rate of the full screen: of about 310,000 compounds, about 14,000 (4.5%) showed an effect of 50% or more. Effects have a minus sign here. This is one part of the list.

Target: human ether-à-go-go-related gene (hERG) potassium channel (human, UniProt Q12809)
Assay: primary screen, population patch clamp on CHO cells stably expressing hERG
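Also: peak tail current of the secondary pulse compared with the same well before compound.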

Sequence of human ether-à-go-go-related gene (hERG) potassium channel (Q12809 whole entry, looked up): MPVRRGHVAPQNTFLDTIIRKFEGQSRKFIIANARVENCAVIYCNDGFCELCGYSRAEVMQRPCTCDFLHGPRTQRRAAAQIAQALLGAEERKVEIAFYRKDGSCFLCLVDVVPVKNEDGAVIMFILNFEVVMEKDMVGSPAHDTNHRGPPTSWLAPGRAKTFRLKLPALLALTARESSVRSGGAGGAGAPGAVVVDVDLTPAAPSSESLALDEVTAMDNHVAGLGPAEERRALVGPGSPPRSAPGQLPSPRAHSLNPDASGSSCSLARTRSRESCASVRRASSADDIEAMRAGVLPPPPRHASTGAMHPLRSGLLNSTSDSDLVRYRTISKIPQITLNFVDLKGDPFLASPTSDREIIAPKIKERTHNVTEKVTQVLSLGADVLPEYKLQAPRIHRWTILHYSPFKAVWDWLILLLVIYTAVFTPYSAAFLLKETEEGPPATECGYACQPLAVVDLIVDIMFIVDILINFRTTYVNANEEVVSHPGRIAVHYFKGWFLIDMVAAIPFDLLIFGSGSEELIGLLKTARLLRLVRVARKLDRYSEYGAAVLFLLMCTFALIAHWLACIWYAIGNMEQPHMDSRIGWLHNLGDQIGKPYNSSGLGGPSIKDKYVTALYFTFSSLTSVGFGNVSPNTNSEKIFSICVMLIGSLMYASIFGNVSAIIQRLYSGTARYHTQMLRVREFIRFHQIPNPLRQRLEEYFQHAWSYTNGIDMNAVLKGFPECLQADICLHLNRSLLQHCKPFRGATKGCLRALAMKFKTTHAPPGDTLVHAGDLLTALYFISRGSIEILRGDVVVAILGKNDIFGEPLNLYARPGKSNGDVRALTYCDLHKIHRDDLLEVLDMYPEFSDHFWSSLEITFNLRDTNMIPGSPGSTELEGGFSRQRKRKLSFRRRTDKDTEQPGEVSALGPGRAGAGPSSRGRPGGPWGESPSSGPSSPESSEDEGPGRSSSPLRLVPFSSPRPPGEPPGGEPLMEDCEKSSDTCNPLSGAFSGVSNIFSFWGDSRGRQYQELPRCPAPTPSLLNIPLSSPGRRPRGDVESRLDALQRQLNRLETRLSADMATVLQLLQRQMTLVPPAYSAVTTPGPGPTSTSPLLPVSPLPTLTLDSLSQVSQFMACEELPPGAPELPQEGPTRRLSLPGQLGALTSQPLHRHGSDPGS

Row | Structure (SMILES) | hERG current change (%, negative = inhibition) at 10uM
1 | CCN(CC(=O)Nc1cc(Cl)ccc1C)C(=O)CN1C(=O)NC(CC)(c2ccccc2)C1=O (centres unmarked) | -9.36%
2 | COc1ccc(CCNCc2ccc(C)s2)cc1OC.Cl | -31.8%
3 | Cc1ccc(N(CC(=O)Nc2ccccc2C(=O)NCc2ccco2)S(=O)(=O)c2ccccc2)cc1C | 10.3%
4 | Cn1c2ccccc2c2cc(/C=N/NC(=O)c3ccc(N)cc3)ccc21 | -5.69%
5 | O=C(O)CNS(=O)(=O)c1ccc(F)cc1 | 23.7%
6 | CCOC(=O)c1ccc(NC(=O)N2CCN(C(=O)c3ccco3)CC2)cc1 | -4.3%
7 | COCC(=O)Nc1c(C(=O)Nc2ccc3c(c2)OCO3)oc2ccccc12 | 17.9%
8 | Cc1[nH]c2nc3ccccc3n2c(=O)c1CCC(C)C | 18%
9 | CC(C)CNC(=O)CN1c2cccc3cccc(c23)S1(=O)=O | 17.2%
10 | Cc1ccc(N(C(=O)CNC(=O)c2ccco2)C(C(=O)NCC2CCCO2)c2ccccc2)cc1 (centres unmarked) | 5.83%
11 | O=C1/C(=C/c2cccnc2)Oc2cc(OS(=O)(=O)c3ccc(F)cc3)ccc21 | -3.08%
12 | Cc1onc(-c2ccccc2)c1C(=O)NC(C)CCc1ccccc1 (centres unmarked) | 15.2%
13 | COc1ccc(-c2ccc3oc(-c4ccsc4)c(-c4ccc(OC)cc4)c3c2)cc1 | 7.39%
14 | COC(=O)c1[nH]c2ccc(F)cc2c1NC(=O)Nc1ccc(OC)cc1 | 9.32%
15 | Cc1ccc(-c2nn(CC(=O)NCc3ccco3)c(=O)c3ccccc23)cc1 | 18.4%
16 | CCOC(=O)c1cc2c(C)n(-c3ccc(C)cc3)c(C)c2ccc1=O | -42.4%
17 | Cc1noc(C)c1CN1C(=O)c2cccc([N+](=O)[O-])c2C1=O | 23.2%
18 | Cc1ccc(C)c(S(=O)(=O)N2CCN(C(=O)/C=C/c3ccco3)CC2)c1 | -35.7%
19 | CNc1c([N+](=O)[O-])cnn1-c1ccc(Cl)cc1Cl | -12.9%

Row | Structure (SMILES) | hERG current change (%, negative = inhibition) at 10uM
20 | CNC(=O)c1ccsc1NC(=O)CS(=O)(=O)c1ccc(Cl)cc1 | -38.6%
21 | O=C(CSc1nnc(COc2ccc(Cl)cc2)o1)N1CCCCC1 | -35.4%
22 | Cc1nn(-c2ccccc2)c(NC(=O)c2cccs2)c(-c2ccc(Cl)cc2)c1=O | 12.7%
23 | CCCCOC(=O)c1ccc(NC(C)=O)cc1 | -11.2%
24 | COc1ccc(-n2c(COc3ccccc3)nnc2SCc2ccc(C#N)cc2)cc1 | -39.4%
25 | O=c1ccn([C@H]2C[C@H](O)[C@@H](CO)O2)c(=O)[nH]1 | -6.1%
26 | Cc1cccc(C)c1NC(=O)CCCSc1nnc(-c2ccco2)o1 | -24.5%
27 | CCOC(=O)C1=C(C)NC(C)=C(C(=O)OCC)C1/C=C/c1ccccc1OC | -2.55%
28 | CCCC1CC(C(=O)Nc2ccccc2)C(=O)O1 (centres unmarked) | 14.2%
29 | Cc1ccc(Cl)cc1N1CCN(C(=O)C(C)n2ncn3cccc3c2=O)CC1 (centres unmarked) | -11.5%
30 | C=CCn1c(-c2cccc(OCC)c2)n[nH]c1=S | 8.03%
31 | CC(=O)c1sc2nc(SCC(=O)NCCc3ccccc3)[nH]c(=O)c2c1C | 10.5%
32 | COc1ccc2cc(C(c3nnnn3Cc3ccccc3)N3CCCCCC3)c(=O)[nH]c2c1 (centres unmarked) | -17.6%
33 | CCOC(=O)c1coc(CNC(=O)c2c(C)oc3c2CCCC3)c1 | -7.01%
34 | Cc1ccc(CN2CCN(CC(=O)N/N=C/c3c[nH]c4ccccc34)CC2)cc1 | -36.3%
35 | CCOC(=O)C1CCN(C2CCN(C(=O)c3oc4c(F)cccc4c3C)CC2)CC1 | -71.1%
36 | COc1ccccc1C1CC(=O)Nc2cc(C)c(C)cc21 (centres unmarked) | 14%
37 | COc1ccc(NC(=O)C(NC(=O)CC2NC(=O)NC2=O)c2ccccc2)cc1 (centres unmarked) | -2.49%
38 | COc1ccc(CNC(=O)C2CCN(S(=O)(=O)c3ccc(Br)s3)CC2)cc1 | -3.03%

Row | Structure (SMILES) | hERG current change (%, negative = inhibition) at 10uM
39 | CCOc1cc(NC(=S)NCCOC)c(OCC)cc1NC(=O)c1ccco1 | 1.36%
40 | COC(=O)c1[nH]c2ccccc2c1NC(=O)CN1CCN(c2cccc(OC)c2)C(C)C1 (centres unmarked) | -7.52%
41 | O=C(CBr)Nc1c2c(nn1-c1ccccc1)CSC2 | 17.4%
42 | O=C1C(=O)N(Cc2cccc([N+](=O)[O-])c2)c2ccccc21 | -13.9%
43 | NNC(=O)c1ccc(COc2cccc3ccccc23)o1 | 8.08%
44 | Cc1ccccc1C1C2=C(Nc3[nH]n(-c4ccccc4)c(=O)c31)c1ccccc1C2=O (centres unmarked) | -1.84%
45 | CCc1nnc(N/N=C/c2c(F)cccc2Cl)n1N | 7.54%
46 | CCc1ccc(/C=C2\Oc3c(ccc(O)c3CN3CCN(C)CC3)C2=O)cc1 | -0.96%
47 | Cc1ccc(C(CC(=O)N2CCCCC2)c2ccccc2)c(O)c1C (centres unmarked) | -22.1%
48 | CCCn1c(N)c(C(=O)CSc2nnc(Cc3cccs3)n2C2CC2)c(=O)n(C)c1=O | -0.534%
49 | O=C(COC(=O)c1cccnc1)c1ccc(Cl)c(Cl)c1 | 1.54%
50 | O=S(=O)(c1cccs1)N1CCN(c2ccccn2)CC1 | -12.6%
51 | O=C(CCN1CCN(c2ccccc2)CC1)NNC(=S)Nc1ccccc1 | -22.3%
52 | COc1ccc(C(C(=O)NC(C)(C)C)N(Cc2cccnc2)C(=O)CCC(=O)Nc2cc(C)on2)cc1 (centres unmarked) | 10.9%
53 | CCC(=O)N/C(N)=N/c1nc2ccccc2o1 | -10.3%
54 | COc1ccc2nc(NC(=O)c3cccc(OCc4c(C)noc4C)c3)sc2c1 | -9.95%
55 | COc1ccc(OC)c(NC(=O)C2CCCC2)c1 | -22.3%
56 | CC1CC(C)CN(S(=O)(=O)c2cc3c(cc2Cl)NC(=O)CO3)C1 (centres unmarked) | -9.87%
